In all, about 310,000 compounds went through this assay and about 14,000 (4.5%) showed an effect of 50% or more. Effects have a minus sign here. The list shows a part of the results.
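Note: peak tail current of the secondary pulse compared with the same well before compound.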

The target of this assay is human ether-à-go-go-related gene (hERG) potassium channel (human, UniProt Q12809). Nature of the assay: primary screen, population patch clamp on CHO cells stably expressing hERG.
Sequence of human ether-à-go-go-related gene (hERG) potassium channel (Q12809 whole entry, looked up): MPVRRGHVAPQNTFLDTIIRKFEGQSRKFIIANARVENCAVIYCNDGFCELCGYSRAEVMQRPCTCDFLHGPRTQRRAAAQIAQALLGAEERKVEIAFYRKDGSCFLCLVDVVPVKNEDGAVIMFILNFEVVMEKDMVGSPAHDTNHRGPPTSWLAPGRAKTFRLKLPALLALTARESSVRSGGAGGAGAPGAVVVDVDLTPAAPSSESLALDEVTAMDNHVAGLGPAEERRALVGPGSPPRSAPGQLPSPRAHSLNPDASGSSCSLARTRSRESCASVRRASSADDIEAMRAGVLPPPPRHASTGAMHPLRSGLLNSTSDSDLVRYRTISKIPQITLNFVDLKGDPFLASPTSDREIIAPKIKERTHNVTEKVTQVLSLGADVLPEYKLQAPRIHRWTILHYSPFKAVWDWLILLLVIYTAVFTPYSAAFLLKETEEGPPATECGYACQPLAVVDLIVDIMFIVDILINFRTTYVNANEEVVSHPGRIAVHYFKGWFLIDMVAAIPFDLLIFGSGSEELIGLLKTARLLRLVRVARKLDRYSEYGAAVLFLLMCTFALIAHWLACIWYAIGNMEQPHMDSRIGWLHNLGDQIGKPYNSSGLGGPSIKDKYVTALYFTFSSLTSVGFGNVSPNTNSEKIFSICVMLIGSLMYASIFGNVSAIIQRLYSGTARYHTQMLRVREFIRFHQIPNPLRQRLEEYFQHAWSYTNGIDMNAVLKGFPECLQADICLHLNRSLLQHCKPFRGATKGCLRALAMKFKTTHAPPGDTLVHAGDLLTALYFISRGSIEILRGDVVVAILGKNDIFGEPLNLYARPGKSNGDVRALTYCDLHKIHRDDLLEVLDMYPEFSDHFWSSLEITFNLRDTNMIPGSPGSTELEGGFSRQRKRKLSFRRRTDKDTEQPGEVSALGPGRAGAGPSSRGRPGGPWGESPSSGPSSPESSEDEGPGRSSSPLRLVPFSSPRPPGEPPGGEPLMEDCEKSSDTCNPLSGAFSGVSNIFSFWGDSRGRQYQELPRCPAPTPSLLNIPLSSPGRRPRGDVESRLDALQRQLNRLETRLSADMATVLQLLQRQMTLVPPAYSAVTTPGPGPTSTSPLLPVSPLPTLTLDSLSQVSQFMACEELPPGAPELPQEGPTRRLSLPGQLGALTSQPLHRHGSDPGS
On to `COc1ccccc1CNC(=O)[C@@H](NC(=O)C1CCN(C(=O)[C@@H]2CCCN2C(=O)OC(C)(C)C)CC1)C(C)C`, for which the “hERG current change (%, negative = inhibition) at 10uM” value is recorded as 9.25%. `Cc1sc2ncn(CC(=O)NCCCOC(C)C)c(=O)c2c1S(=O)(=O)N1CCN(c2ncccn2)CC1`: the “hERG current change (%, negative = inhibition) at 10uM” value amounted to 14.4%. For `Cc1c(Cl)cccc1NC(=O)CNC(=O)c1ccccc1F`, the “hERG current change (%, negative = inhibition) at 10uM” value is 3.71%. Next, `O=C(COC(=O)c1ncc(Cl)c(Cl)c1Cl)NCCc1ccccc1`: 5.32%; `CCn1c(SCC(=O)Nc2ccc(S(N)(=O)=O)cc2)nnc1-c1cccc(OC)c1`: -8.52%; `C/C(=N/NC(=O)c1ccc(Br)o1)c1ccncc1`: 7.82%. For `Cc1cccc(NC(=O)C2CCCN2C(=O)OCC(C)C)c1C` (stereo not drawn), the “hERG current change (%, negative = inhibition) at 10uM” value amounted to 4.87%. For the compound `CCNC(=S)NNC(=O)CSc1nc2ccccc2[nH]1`, the “hERG current change (%, negative = inhibition) at 10uM” value was found to be 17.2%.

Consider `O=C(NCCCN1CCOCC1)c1cc(Cl)ccc1Cl`, for which the “hERG current change (%, negative = inhibition) at 10uM” value is recorded as 11.5%. Consider `O=C(NCCC1=CCCCC1)Nc1ccc2nsnc2c1`, for which the “hERG current change (%, negative = inhibition) at 10uM” value is recorded as 8.84%. `COc1ccc2c(-c3ccccc3)cc(=S)[nH]c2c1`: the “hERG current change (%, negative = inhibition) at 10uM” value is given as 12.1%. With `CCCCCCn1c(SCCOC)nc2c1c(=O)[nH]c(=O)n2C` the figure was -59.8%. On to `CCN1CCN(CC(=O)c2ccc(C)cc2)CC1`, for which the “hERG current change (%, negative = inhibition) at 10uM” value is 8.76%.

`O=C(Cc1ccccc1)Nn1c(O)c(/C=C2\C=Nc3ccccc32)sc1=S`: the “hERG current change (%, negative = inhibition) at 10uM” value stood at 13.4%. Next, `COc1cc(NC(=O)COC(=O)[C@@H]2CCCN2S(=O)(=O)c2ccc(Cl)cc2)cc(OC)c1OC`: -12.8%; `CCOC(=O)N1CCN(C(=O)COc2ccc(Cl)cc2C)CC1`: -20.5%. Regarding `COc1ccc(C(=O)Nc2ccc(S(=O)(=O)NCc3ccco3)cc2)cc1OC`, the “hERG current change (%, negative = inhibition) at 10uM” value is 2.6%. Regarding `COc1ccc(/C(N)=N/OC(=O)Oc2ccccc2)cc1`, the “hERG current change (%, negative = inhibition) at 10uM” value came to 18%. Consider `CCOc1c2ccc(C(=O)NC3CCCc4ccccc43)cc2nn1CC` (stereo not drawn), for which the “hERG current change (%, negative = inhibition) at 10uM” value was -1.49%. On to `CC(C)(C)OC(=O)N1CCC[C@H]1c1nnc(SCc2c(F)cccc2Cl)o1`, for which the “hERG current change (%, negative = inhibition) at 10uM” value is reported as 2.16%. In the case of `Cc1nnc(NC(=O)C(C)Sc2nnc(CNC(=O)c3ccccc3F)n2C)s1` (stereo not drawn), the “hERG current change (%, negative = inhibition) at 10uM” value turned out to be 1.93%. For the compound `Cc1cccc(C)c1NC(=O)CSc1nnc(C)c(=O)[nH]1`, the “hERG current change (%, negative = inhibition) at 10uM” value was determined as 15.1%. Consider `Cc1ccc(C(c2sc3ncnn3c2O)N2CCCCC2)cc1` (stereo not drawn), for which the “hERG current change (%, negative = inhibition) at 10uM” value was -4.53%.

On to `O=C(NCCCN1CCc2ccccc2C1)Nc1ccc(Br)cc1`, for which the “hERG current change (%, negative = inhibition) at 10uM” value is reported as -71.7%. On to `Cc1nnc(N/N=C\c2ccc(-c3ccccc3[N+](=O)[O-])o2)n1N`, for which the “hERG current change (%, negative = inhibition) at 10uM” value is -32.4%. As for `Cc1c(C(=O)N2CCCCC2)c(S(=O)(=O)N(C)Cc2ccco2)c(C)n1C`, the “hERG current change (%, negative = inhibition) at 10uM” value was -3.94%. In the case of `CCOc1ccccc1NC(=O)C1CCN(C(=O)c2cccs2)CC1`, the “hERG current change (%, negative = inhibition) at 10uM” value is 18.3%. In the case of `O=c1cc[nH]c2ccc(OC(F)(F)F)cc12`, the “hERG current change (%, negative = inhibition) at 10uM” value amounted to 18.4%. For the compound `CCC(C)NC(=O)CSc1ccc(S(=O)(=O)N2CCN(Cc3ccccc3)CC2)cn1` (stereo not drawn), the “hERG current change (%, negative = inhibition) at 10uM” value is -16.6%. Consider `CCCCn1c(-c2cc(Cl)ccc2OC)n[nH]c1=S`, for which the “hERG current change (%, negative = inhibition) at 10uM” value turned out to be 22.6%. Regarding `Cc1ccc(NC(=O)C2C3CCCCC32)cc1[N+](=O)[O-]` (stereo not drawn), the “hERG current change (%, negative = inhibition) at 10uM” value was determined as 14.4%. Regarding `Cc1ccc(OC(=O)NC2CCS(=O)(=O)C2)cc1C` (stereo not drawn), the “hERG current change (%, negative = inhibition) at 10uM” value worked out at 2.78%. For `CCOP(=O)(c1c(F)c(F)c(F)c(F)c1F)C(O)c1ccccc1` (stereo not drawn), the “hERG current change (%, negative = inhibition) at 10uM” value came to 6.67%. With `Cn1c(=O)c2c(ncn2CC(=O)OCC(=O)Nc2cccc(Cl)c2)n(C)c1=O`, the “hERG current change (%, negative = inhibition) at 10uM” value is on record as -15.1%. `Cc1ccc(S(=O)(=O)c2nc(S(C)(=O)=O)sc2N2CCC3(CC2)OCCO3)cc1`: the “hERG current change (%, negative = inhibition) at 10uM” value is given as -34.3%. Next, `COc1cc(/C=N/N2CCN(Cc3ccccc3)CC2)cc(OC)c1OC(C)=O`: -0.04%; `COc1ccc(CNC(=O)CCn2nc(C)c3c(C)n(-c4ccccc4)nc3c2=O)c(OC)c1`: 11.8%. Take `COc1ccc(C(=O)/C=C/c2ccc(OC)cc2OC)c(O)c1`: the “hERG current change (%, negative = inhibition) at 10uM” value is reported as 1.75%.

As for `Cc1cccn2cc(CSc3nnc(Nc4ccc(C(C)C)cc4)s3)nc12`, the “hERG current change (%, negative = inhibition) at 10uM” value was found to be 8.83%. With `COc1ccc(N2CCN(C(c3cc(OC)ccc3OC)c3nnnn3Cc3ccco3)CC2)cc1.Cl` (stereo not drawn) the figure was -8.07%; with `CCOC(=O)C1CCN(C(=O)CCc2ccc(S(=O)(=O)NCC(C)C)cc2)CC1`, 8.81%; with `CCOC(=O)N1CCN(C(=O)c2ccc(N3C(=O)c4ccccc4C3=O)cc2)CC1`, -11.3%.

Take `Cc1ccc(CN2CCC(CNC(=O)Nc3ccccc3F)CC2)cc1`: the “hERG current change (%, negative = inhibition) at 10uM” value is recorded as -69.7%.

Consider `O=C(CSc1nnc(-c2ccco2)n1-c1ccccc1)N1CCOCC1`, for which the “hERG current change (%, negative = inhibition) at 10uM” value stood at 2.92%. As for `O=[N+]([O-])c1ccc(NC(=S)NCCc2ccccc2)cc1`, the “hERG current change (%, negative = inhibition) at 10uM” value is listed as -2.15%.

For the origin of these results see paper PMC4336329 (PLoS ONE, 2015).
